Reference: US20030187007A1, “Inhibitors of protein kinase for the treatment of disease” (priority 2001, published 2003)

Tested on: NCI-H322M
Details: Homo sapiens, Non-Small Cell Lung Cancer, 72 hours
Experimental: Inhibition of cell growth was measured using cell viability assay, which is based on the use of a protein-binding dye, sulforhodamine B (SRB). The different cancer cell lines were seeded in 96-well plates at 2000 cells/100 μL per well in RPMI media with 10% FBS. Next day, the cells were treated with compounds as designed doses and incubated for 72 hours at 37° C. in the presence of 5% CO2. Then the cells were fixed with 10% ice cold trichloroacetic acid (TCA) and incubated for an hour at 4° C. After washing the plates with tap water 4-5 times, the plates were dried in the air. Then the cells were stained with 0.4% SRB for 10 minutes, washed with 1% acetic acid 4-5 times and dried in the air. After adding 100 μL of 10 mM unbeffered Tris base to solubilize bound stain, optical densities were measured at 574 nm using Victor™ (1420 Multi-label Counter, Wallace) for the analysis. The values of IC50 (the concentration of 50% growth inhibition) were calculated from the dose-response curve fitting.

SMILES: Nc1nccc(-c2cc(-c3ccc(O)cc3)ccc2O)n1 [3-(2-Amino-pyrimidin-4-yl)-biphenyl-4,4′-diol]
- GI50: 316 nM
- CC50 (read-out: Log (LC50) (the source's name) (converted)): > 100000 nM
